Among all 110,000 compounds or so, about 40 (0.04%) were called active. This list was built around the results that the source calls inconclusive (neither active nor inactive); the mix of calls is not that of the screen. Calls follow the shape of the dose curve; as a rule, active = well fitted curve in the direction sought with a large enough effect in the signal ratio (not every such curve was filed as active); inconclusive = small, poorly fitted or top-dose-only effect, or a change in a side signal; inactive = flat fitted curve, though single readings scatter; the % refers to the signal ratio. Where the call is inconclusive, the potency comes from a doubtful curve fit.
Experiment: IkB Signaling;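 as to IkBa stabilization activation: 0% = basal untreated cells and 100% = reference inhibitor full response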
Conditions: ABC-DLBCL IkBa-CBG/CBR dual luciferase ratio (green luciferase fused to IkBa over red control in OCI-Ly3 lymphoma cells), 4 h; IkBa stabilization activation: at 57.1 µM (top of the series), scaled: untreated 0%, proteasome inhibitor 100% unless noted
Summary of the method: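 Curves were fitted separately to fusion (green), unfused (red) and ratio luminescence, then classed by r2, magnitude and activity. Cells: OCI-Ly3, 4 h compound plus doxycycline at 37C; 10 uM MG-132 defined full response.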
Potency is read from the fitted curve at half-maximal effect.

SMILES	IkBa stabilization activation	Potency
Cc1ccc(C(=O)CC2(O)C(=O)N(CCc3ccccc3)c3ccc(Cl)cc32)cc1 (configuration not stated)	inconclusive: -6.45% [signal inhibitor]	
CC(C)OC(=O)c1cccnc1SCc1cc(=O)n2ccccc2n1		inconclusive: 31.6 µM [signal inhibitor, partial curve]
C[N@+]1(CCC(=O)c2ccccc2)CC[C@H]2CC[C@H](C2)C1	inactive: 0.762% [at 11.4 µM, scaled: untreated 0%, proteasome inhibitor 100%]	
c1ccc(Sc2nc(N3CCCCC3)nc(N3CCCCC3)n2)nc1	inconclusive: 1.46% [signal inhibitor]	
CCOc1ccc(-c2nn(CC(=O)NC3CCCCC3)c3c2cnc2ccc(C)cc23)cc1	inconclusive: 0.0208% [signal inhibitor]	
Cc1ccc(Cl)cc1N1CCN(C(=O)Cn2ccc3ccccc3c2=O)CC1	inconclusive: 1.25% [signal inhibitor]	
Cc1nc2oc3c(NCc4ccccn4)ncnc3c2c2c1COC(C)(C)C2	inactive: -3.89%	
COc1cc(-c2noc(-c3ccc(NCc4ccccc4)c([N+](=O)[O-])c3)n2)cc(OC)c1OC	inconclusive: 1.18% [signal inhibitor]	
Cc1ccc(C(=O)NCCc2ccc(Cl)cc2)cc1-n1c(C)nc2cccnc21	inconclusive: 1.73% [signal inhibitor]	
COc1ccc(NC(=O)Cn2nnc3sc4c(c3c2=O)CCC(C)C4)c(OC)c1 (configuration not stated)	inconclusive: 11.7% [signal inhibitor]	
C/C(=C1/SC(=S)N(CCC(=O)O)C1=O)c1ccc(O)cc1		inconclusive: 2.51 µM [signal inhibitor, full curve]
CCn1c(=O)c2cc(C(=O)N(CCN(C)C)Cc3ccccc3)sc2c2ccccc21	inconclusive: -0.442% [signal inhibitor]	
Cc1cc(C)cc(NC(=O)CSc2nc3c(oc4ccccc43)c(=O)n2-c2ccccc2F)c1	inconclusive: 0.619% [signal inhibitor]	
COc1ccc2cc3cc(C(=O)NCc4ccc(C)cc4)oc3nc2c1	inconclusive: -1.85% [signal inhibitor]	
O=c1c2ccccc2nc(-c2ccco2)n1/N=C/c1ccco1	inactive: 0.787%	
COc1ccc(OC)c(CCNC(=O)c2ccc3c(c2)N(Cc2ccc(C)cc2)CCS3)c1	inconclusive: 2.5% [signal inhibitor]	
Cc1cc(=O)oc2c(OS(C)(=O)=O)c(OS(C)(=O)=O)ccc12	inactive: -0.113% [at 11.4 µM, scaled: untreated 0%, proteasome inhibitor 100%]	
